Measurements published in article PMC4552532 (Physiological Reports, 2015).

Columns and labels:
[1] = NPY fluorescently labeled at residue 1, ref Khan et al. [2007]; cited from earlier work
Source text: Abid et al. proposed that the C-terminal tyrosine in NPY is cleaved off by plasma kallikrein. […] In contrast to the cleavage products found by Abid et al., and in agreement with the data presented here on PYY degradation, Khan et al. ([2007]) ...

[2] = In vitro degradation of PYY in porcine plasma; format: in vitro ADME, pig; conditions: 37°C
[3] = in situ perfusion of the rat liver, concentrations up to 500 pmol/L; ref Beckh et al. [1992]; cited from earlier work
Source text: An earlier study by Beckh et al., employing in situ perfusion of the rat liver, has shown a lower hepatic extraction of PYY (up to 10% in concentrations up to 500 pmol/L) (Beckh et al. [1992]), but the PYY assay they used most likely could not detect C-terminal changes; this would be in ...

[4] = pig, in vivo
[5] = In vitro degradation of PYY in porcine whole blood; format: in vitro ADME, pig; conditions: 37°C

Substance | peptide degraded after 24 h in human plasma [1] [%] | PYY preserved after 24 h with EDTA, plasma ([2]; heparinized porcine plasma, 24 h, + EDTA 10 mmol/L, RIA, degradation no longer first-order) | share of total immunoactive PYY C-terminally truncated after 6 h, plasma ([2]; porcine plasma, 6 h, PYY3–34 RIA versus total PYY RIA) | hepatic extraction of PYY in perfused rat liver [3] | hepatic extraction, total PYY assay [4] | renal extraction ratio, total PYY assay [4] | PYY preserved after 24 h with EDTA, blood ([5]; heparinized porcine whole blood, 24 h, + EDTA 10 mmol/L, RIA, degradation no longer first-order) | share of total immunoactive PYY C-terminally truncated after 6 h, blood ([5]; porcine blood, 6 h, PYY3–34 RIA versus total PYY RIA)
NPY: Neuropeptide Y, PP-family peptide related to PYY; literature data of Khan et al. | 50 | – | – | – | – | – | – | –
PYY: Peptide YY immunoreactivity by side-viewing antibody, recognizes PYY1/3–36 and PYY1/3–34 equally; form not specified at the place | – | more than 80% | approximately 40% | up to 10% | no significant hepatic extraction | about 20% | more than 80% | approximately 40%
